The text below walks through data of PubChem BioAssay AID463173 (ICCB-Longwood Screening Facility, Harvard Medical School, 2010).

In all, about 52,000 compounds went through this assay and about 1,700 (3.3%) were called active. Rule as the data show it: active = survival mostly below about 52% (no sharp cut-off); inactive = mostly above about 56%. This is one part of the list.

The subject of this experiment is Wild type. The experiment can be described thus: S. aureus survival, RN4220 and DeltatarO strains – OD600, teichoic acid synthesis inhibitors, primary screen (AID 463173). The following applies: S. aureus RN4220 wild type/DeltatarO growth, OD600, 18 h, stronger effect = lower value, screened at 18.75 µg/mL (by protocol).
For the compound `Cc1cc(N2CCCCC2)nc2ccc(NC(=O)c3ccc(F)cc3)cc12`, the survival was inactive: 62%. For `CCOC(=O)c1c(NC(=O)CSc2cn(CCNC(=O)c3ccc(OCC)cc3)c3ccccc23)sc2c1CCCC2`, the survival is inactive: 76%.

For the compound `CCOc1ccc(C(=O)Nc2ccc(S(=O)(=O)N(Cc3ccccc3)c3ccccc3)cc2)cc1`, the survival was inactive: 81%. For `COc1ccc(OC)c(C2CC(=O)N(c3cccc(C)c3)C3=C2C(=O)OC3)c1` (stereo not given), the survival is inactive: 144%. Next, `O=C(c1ccco1)N1CCN(c2ncnc3sc4c(c23)CCC4)CC1`: inactive: 103%; `O=C(COc1ccccc1)Nc1ccc(OCc2cc(=O)n3ccsc3n2)cc1`: inactive: 91%; `COCCNC(=O)CSc1nc(-c2ccc(F)cc2)[nH]c1-c1ccc(Cl)cc1`: inactive: 76%. Regarding `CC(CNC(=O)Cn1ncc2c3ccccc3n(Cc3cccc(Cl)c3)c2c1=O)c1ccccc1` (stereo not given), the survival was inactive: 88%. On to `CN(C(=O)CSc1nc2ncccc2o1)c1ccc(F)cc1`, for which the survival is inactive: 60%. Regarding `Cc1cc(F)ccc1Nc1nc2ccccc2n2nnnc12`, the survival is inactive: 124%.

Consider `CNS(=O)(=O)c1cn(CC(=O)Nc2ccc(OC)c(Cl)c2)cc1S(=O)(=O)NC`, for which the survival was inactive: 88%. With `COc1ccccc1N1CCN(S(=O)(=O)c2ccc(-c3cc(C(F)(F)F)on3)s2)CC1` the figure was inactive: 69%. For `O=C(CSc1nc2cc3ccccc3cc2[nH]1)Nc1cccc(C(F)(F)F)c1`, the survival is inactive: 82%. `Cn1c(=O)c2c(ncn2CC(=O)N(CC(=O)NC2CCCCC2)Cc2ccccc2Cl)n(C)c1=O`: the survival was inactive: 114%. Next, `Cc1ccc2c(c1)C(C(=O)O)=Cc1ccccc1O2`: inactive: 110%; `O=C(Nc1ccc(Cl)cc1)C1C2CCCCC21` (stereo not given): inactive: 116%. As to `CC(C)CCNC(=O)C(=O)Nc1c2c(nn1-c1ccccc1)CS(=O)(=O)C2`, the survival was inactive: 90%. With `COc1cccc(CNc2ncnc3onc(-c4ccc(F)cc4)c23)c1`, the survival is inactive: 82%. In the case of `COCc1cc(C)nc2sc3c(c12)NC(c1ccc(NC(C)=O)cc1)N(c1ccc(C)cc1)C3=O` (stereo not given), the survival is inactive: 77%.

Regarding `CS(=O)(=O)N1CCN(c2ccccc2F)CC1`, the survival is inactive: 99%. With `CCOC(=O)c1cc(OC(=O)c2cccc(C)c2)n(-c2ccccc2)n1` the figure was inactive: 73%; with `CCN(c1ccccc1)c1nnc(NC(=O)Nc2cccc(C(F)(F)F)c2)s1`, inactive: 89%; with `CC(=O)NCCc1nc2ccccc2n1CCCCOc1ccc(Cl)cc1`, inactive: 95%.

`O=c1c2ccccc2n(Cc2cccc(Cl)c2)c(=O)n1CCc1ccccc1`: the survival was active: 39%. As to `COCc1cc(C)nc2sc3c(=O)n(-c4cc(C)ccc4C)nnc3c12`, the survival was inactive: 84%. Next, `CCOC(=O)c1ccccc1NC(=O)N1CCN2CCCCC2C1` (stereo not given): inactive: 72%; `Cc1ccc(C)c(N2CCN(c3ncnc4onc(C)c34)CC2)c1`: inactive: 97%; `CCN1C(=O)/C(=C2\C=Cc3ccccc3N2CC)SC1=S`: inactive: 99%. As to `Cn1cccc1C(C(=O)NC1CCCCC1)N(C(=O)Cn1nnc2ccccc21)c1cnc2ccccc2c1` (stereo not given), the survival is inactive: 111%. Consider `O=C(Cc1ccccc1)N/N=C/c1cccs1`, for which the survival was inactive: 113%. Next, `COc1ccccc1CCNC(=O)Cc1c(C)c2ccc(O)cc2oc1=O`: inactive: 74%.

Consider `CC(=O)Nc1nonc1-c1nnc(SCC(=O)Nc2cc(C)ccc2C)n1-c1ccccc1`, for which the survival was inactive: 112%. `COc1ccc(CNc2nc3c(S(=O)(=O)c4ccccc4)nnn3c3ccc(Cl)cc23)cc1`: the survival is inactive: 89%.

As to `CCOc1ccc(Nc2oc(/C=C/c3ccc(F)cc3)nc2C#N)cc1`, the survival was inactive: 111%. As for `Cc1ccc(OCC(=O)Nc2ccc(C(=O)OCc3cc(=O)n4nc(C5CC5)sc4n3)cc2)cc1`, the survival is inactive: 81%. With `COc1ccc(NC(=O)c2oc3c(c2C)-c2nn(Cc4c(F)cccc4Cl)cc2CC3)c(OC)c1`, the survival was inactive: 92%. With `Cc1ccc(NC(=O)C(=O)NCC(c2cccnc2)N2CCN(C)CC2)cc1C` (stereo not given) the figure was inactive: 89%. For `O=C(CSc1nc(=O)[nH]c2c1CCCC2)Nc1cc(C(F)(F)F)ccc1Cl`, the survival is inactive: 77%.

Regarding `COc1ccc(-c2nnc(Nc3ccc(OCC(N)=O)cc3)c3ccccc23)cc1`, the survival is inactive: 90%. Regarding `Cc1cc(C)c2c(CC(=O)Nc3nnc(C(C)C)s3)coc2c1`, the survival is inactive: 93%.

Regarding `Fc1ccccc1CNCCCSc1nnnn1-c1ccccc1`, the survival was inactive: 87%. As to `CCc1ccc(NC(=O)c2cc3ccccn3n2)cc1`, the survival is inactive: 95%. Consider `Cc1nc2cc(C(F)(F)F)ccc2n1C1CCN(C(=O)C2CC2)CC1`, for which the survival was inactive: 95%. `O=C1CCSC2(C(=O)N(Cc3ccc(F)cc3)c3ccccc32)N1c1ccccc1` (stereo not given): the survival was inactive: 83%. For the compound `CCOC(=O)c1ccccc1NC(=O)CSc1ccc(-c2sc(-c3ccccc3)nc2C)nn1`, the survival was inactive: 57%. For `Cc1cc(C)n(-c2nc3ccccc3nc2Nc2cccc(C(F)(F)F)c2)n1`, the survival was inactive: 86%.

In the case of `Cc1c(C(=O)NN)c2cc(O)ccc2n1C`, the survival is inactive: 107%. Next, `COc1ccc(C2C(C(=O)Nc3ccccc3)=C(C)Nc3nc(-c4ccccc4)nn32)cc1OC` (stereo not given): inactive: 86%; `COc1ccc(OC)c(-c2nc(Nc3ccccc3C)sc2CC(=O)O)c1`: inactive: 82%; `CC(C)c1ccc(NC(=O)C2CCCN(S(=O)(=O)c3ccc(Br)s3)C2)cc1` (stereo not given): inactive: 65%.

Turning to `COc1cccc(C(=O)Nc2ccccc2C(=O)OCc2cc(=O)n3nc(C)sc3n2)c1`, the survival is inactive: 80%. With `COc1ccc(NC(=O)C(=O)NCCc2ccccc2)cc1OC` the figure was inactive: 72%; with `CC(C)CCNC(=O)CN1C(=O)COc2ccc(S(=O)(=O)N3CCOCC3)cc21`, inactive: 82%; with `COc1ccc(-n2cc(-c3ccccc3)c3c(SC(C)C(C)=O)ncnc32)cc1` (stereo not given), inactive: 67%. Next, `CCc1ccc(NS(=O)(=O)c2ccc3[nH]cc(C(=O)NC4CCCC4)c(=O)c3c2)cc1`: active: 9%; `CCOC(=O)c1cccc(NC(=O)c2cc3c(Cl)nc4ccc(C)cc4c3s2)c1`: inactive: 116%; `COc1cc(OC)c(OC)cc1CN1CCc2nc(N3CCN(c4ncccn4)CC3)ncc2C1`: inactive: 80%. Take `Fc1ccc(-c2cc(-c3nc(-c4cccc(Cl)c4)no3)[nH]n2)cc1`: the survival was inactive: 75%. `CCc1ccc(CNC(=O)c2ccc3c(c2)nc2n3CCOC2)cc1`: the survival was inactive: 111%.

In the case of `CCN1CCN(C(=O)c2ccc3c(c2)N(Cc2cccc(Cl)c2)C(=O)c2ccccc2S3(=O)=O)CC1`, the survival is inactive: 75%. Take `COc1ccccc1CNC(=O)CSc1ncc2c(n1)-c1ccccc1N(Cc1ccc(C)cc1)S2(=O)=O`: the survival was inactive: 76%. Regarding `COc1ccc(-c2noc(C3CC(=O)N(c4ccc(C)c(F)c4)C3)n2)c(OC)c1` (stereo not given), the survival was inactive: 94%. Turning to `CC1CCC(NC(=O)c2ccc3c(c2)N(Cc2cccc(F)c2)C(=O)c2ccccc2S3)CC1` (stereo not given), the survival was inactive: 129%. For the compound `CCc1nnc(SCc2ccc(F)cc2Cl)c2cc3sccc3n12`, the survival is inactive: 93%. Regarding `Cc1ccc(C)c(NC(=O)C(C)n2c(=O)cc(C(F)(F)F)c3c(C)nn(C)c32)c1` (stereo not given), the survival was inactive: 80%.

In the case of `O=C(Cn1c(-c2cccs2)cc2cc(Cl)ccc21)N1CCCCC1`, the survival was inactive: 68%. With `Cc1ccc(NC(=O)C2CCCN(S(=O)(=O)c3ccc4c(c3)CCCC(=O)N4)C2)cc1N(C)C` (stereo not given) the figure was inactive: 75%; with `Cc1ccc(C)c(NC(=O)Cn2c(=O)n(CCCS(=O)(=O)C3CCCCC3)c(=O)c3ccccc32)c1`, inactive: 119%; with `COc1ccc(Cl)cc1C(=O)NCC(c1ccc(N(C)C)cc1)N1CCCC1` (stereo not given), inactive: 124%. Consider `Cc1cc2ccccc2nc1SCCN1CCOCC1`, for which the survival is inactive: 105%. Consider `CC(C)(O)C(=O)N=Nc1c(O)[nH]c2ccccc12`, for which the survival is inactive: 109%. Turning to `COc1cc(C2SCC(C(=O)O)N2C(C)=O)cc(Br)c1O` (stereo not given), the survival was inactive: 112%. On to `C/C(=N\N)c1ccc(OC(C)C)c(CN2CCOCC2)c1`, for which the survival is inactive: 112%. Regarding `Cc1ccc(-c2ccc(CCC(=O)O)n2-c2ccc(C)c(Cl)c2)cc1`, the survival is inactive: 62%. For the compound `Fc1ccc(-c2nnn3c2nc(NCc2ccccc2)c2ccccc23)cc1`, the survival is inactive: 87%. Next, `CCOc1cc(C(=O)Nc2ccc(-c3nnc4n3CCCCC4)cc2)cc(OCC)c1OCC`: inactive: 88%; `N#Cc1cc2c(ccc3ccccc32)oc1=O`: inactive: 106%. With `Cc1ccc2nc(/C(C#N)=C/c3ccc(-c4ccc(C(=O)OC(C)C)cc4)o3)[nH]c2c1` the figure was inactive: 65%; with `Cc1ccc2c(c1)c1c(c(=O)n(-c3ccccc3)c(=O)n1CC(=O)c1ccc(Cl)cc1)n2C`, inactive: 126%; with `Cn1c(=O)n(C)c2cc(N3CCOCC3)c(NS(=O)(=O)c3ccc(F)cc3)cc21`, inactive: 144%. For the compound `O=C1CN(C(=O)c2c(F)cccc2Cl)C(c2ccc(F)cc2)c2cc(Br)ccc2N1` (stereo not given), the survival is inactive: 69%. Take `CCOc1ccc(NC(=O)CSc2nccn2C2CCCC2)cc1`: the survival was inactive: 68%. As for `CN(C(=O)CSc1nc2ccc(NC(=O)c3cccs3)cc2s1)c1ccccc1`, the survival is inactive: 77%. In the case of `COC(=O)c1cccc(CN2C(=O)SC(Nc3ccccc3C)C2=O)c1` (stereo not given), the survival is inactive: 115%.

Regarding `Cc1ccc(CN2C(=O)CN(C3CCCCCC3)C(=O)C2c2ccc(F)cc2)cc1` (stereo not given), the survival is active: 1%. As to `O=C(c1ccc(-c2cccc(C(F)(F)F)c2)o1)N1CCOCC1`, the survival was inactive: 107%. With `CCc1ccc(CNC(=O)C2CCN(C(=O)c3ccc(-n4c(C)cc5ccccc54)s3)CC2)cc1` the figure was inactive: 81%. Turning to `COc1ccc(-n2c(=O)c3c4c(sc3n(CC(=O)C(C)(C)C)c2=O)CCCC4)c(OC)c1`, the survival is inactive: 65%. Turning to `Cc1ccc(OCc2cc(=O)n3c(-c4ccccc4)csc3n2)cc1`, the survival is inactive: 94%. With `COc1ccc(C(=O)Nc2nc(-c3nnn(-c4cc(OC)ccc4OC)c3C)ns2)cc1`, the survival was inactive: 120%.
